Measured values: PubChem BioAssay AID624202 (National Center for Advancing Translational Sciences (NCATS), 2012)
The whole screen tested about 380,000 compounds, of which about 4,000 (1.1%) were called active. The inconclusive results got no clear call from the source; some entries with a clear call stand among them for comparison. Calls follow the shape of the dose curve; as a rule, active = well fitted activation curve with a large enough effect; inconclusive = small, poorly fitted or top-dose-only effect; inactive = no such curve, though single readings can be large or run the other way. A potency beside an inconclusive call is a rough fit, not a confirmed value.
Potency is read from the fitted curve at half-maximal effect; tags tell the direction and shape of the fitted curve.

Assay: qHTS Assay to Identify Small Molecule Activators of BRCA1 Expression; also: nearly all actives have a fitted effect of over 80% in size
Settings: MCF7-BRCA1-FFLuc reporter, luminescence, 48 h; activation: at 46.1 µM (top of the series), scaled: vehicle 0%, 10 µM genistein 100% unless noted
In short: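 Luminescence from a BRCA1-driven firefly luciferase in MCF7 cells was read after 48 h compound exposure at 37 C. Data normalized against DMSO and a 10microM genistein activation control, then curve-fitted across the titration.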
For Nc1ccccc1C#Cc1ccc2[nH]ccc2c1, the Potency was active: 10 µM. With CN(C)S(=O)(=O)c1cccc(-c2cn3cc(Cl)ccc3n2)c1 the Potency was inconclusive: 31.6 µM [activator, single point]. In the case of COC(=O)c1ccc(N2OC3(C)C=CC2CC3)cc1 (stereo unspecified), the Potency is reported as inconclusive: 11.2 µM [activator, partial curve, poor fit]. In the case of CCOC(=O)c1csc(-c2ccc3c(c2)CCO3)n1, the Potency is reported as inconclusive: 1.58 µM [activator, full curve, poor fit]. In the case of Clc1cccc(N/N=C/c2ccc(N3CCOCC3)cc2)c1, the Potency is reported as inconclusive: 7.08 µM [activator, partial curve, poor fit]. With CCN(CC(=O)Nc1ccc2c(c1)OCCO2)C(=O)c1ccccc1Br the Potency was inconclusive: 12.6 µM [activator, partial curve, poor fit]. For O=C(CSc1nnc(-c2ccc(O)cc2)o1)Nc1ccccc1Br, the Potency was inconclusive: 2.51 µM [activator, full curve, poor fit]. In the case of COc1ccc(-n2ncc3c(N4CCc5ccccc54)ncnc32)cc1, the Potency is reported as inconclusive: 1.58 µM [activator, partial curve, poor fit]. In the case of O=[N+]([O-])c1ccc(N/N=C/c2cccc(O)c2O)cc1, the Potency is reported as inconclusive: 35.5 µM [activator, single point]. For CCc1ccc(CN(C(=O)c2cccs2)C2CCS(=O)(=O)C2)cc1 (stereo unspecified), the Potency was “inactive”. In the case of Clc1ccc(Cc2nnc(-c3cccs3)o2)cc1, the Potency is reported as active: 11.2 µM. In the case of O=C(Nc1nncs1)c1cc2c(s1)CCC2, the Potency is reported as inconclusive: 14.1 µM [activator, single point]. In the case of Cc1ccccc1C(=O)Nc1sc2c(c1C(=O)O)CCC2, the Potency is reported as inconclusive: 35.5 µM [activator, single point]. With COc1ccc(C2CC(=O)c3ccccc3O2)cc1 (stereo unspecified) the Potency was inconclusive: 11.2 µM [activator, partial curve, poor fit]. With O=C(N/N=C/c1ccc(OCc2ccccc2)cc1)c1ccco1 the Potency was inconclusive: 8.91 µM [activator, partial curve, poor fit]. For Cc1cccc(C(=O)Nc2sc(-c3ccccc3)cc2C(=O)O)c1, the Potency was inconclusive: 2.24 µM [activator, full curve, poor fit]. With Cc1nc2ccc(NC(=O)CS(=O)(=O)c3ccccc3)cc2s1 the Potency was inconclusive: 11.2 µM [activator, partial curve, poor fit]. With O=C(Nc1cccc(O)c1)c1ccc(NC(=O)c2cccs2)cc1 the Potency was inconclusive: 22.4 µM [activator, single point]. With CCC1([N+](=O)[O-])COC(c2ccc(C(C)C)cc2)OC1 (stereo unspecified) the Potency was inconclusive: 11.2 µM [activator, partial curve, poor fit]. With Cc1ccc(S(=O)(=O)N2c3ccccc3OCC2c2ccccc2)cc1 (stereo unspecified) the Potency was “inactive”. For CCOC(=O)c1sc2nc3n(c(=O)c2c1C)CCCCC3, the Potency was inconclusive: 7.94 µM [activator, partial curve, poor fit]. In the case of Cc1ccc(Cc2c(-c3ccc(Br)cc3)nc3cc(C)ccn23)cc1, the Potency is reported as inconclusive: 12.6 µM [activator, partial curve, poor fit]. In the case of CC(C)(C)C(=O)Nc1ccc(C(=O)N/N=C/c2ccccc2OC(=O)c2ccccc2)cc1, the Potency is reported as “inactive”. With CC(C)C(NC(=O)c1ccc(Br)cc1)C(=O)NC1=NCCS1 (stereo unspecified) the Potency was “inactive”. With C/C(=N\Nc1ccc([N+](=O)[O-])cc1)c1ccc(O)cc1 the Potency was inconclusive: 11.2 µM [activator, partial curve, poor fit]. With COc1ccc(CNC(=O)Nc2ccccc2)cc1 the Potency was inconclusive: 10 µM [activator, partial curve, poor fit]. For O=C(NC(=S)Nc1c(F)cc(F)cc1Br)c1ccc2c(c1)OCCO2, the Potency was inconclusive: 35.5 µM [activator, single point]. With CCn1c(C)nc2cc(-c3nc4n(n3)Cc3ccccc3-4)ccc21 the activation was inconclusive: -100% [activator]. With COc1ccc(COc2cccnc2N)cc1 the Potency was inconclusive: 12.6 µM [activator, partial curve, poor fit]. In the case of Cc1ccnc(NC(=O)c2sc3cc(Cl)ccc3c2Cl)c1, the Potency is reported as inconclusive: 1.12 µM [activator, full curve, poor fit]. For CCC(C)c1ccc(NC(=S)NCc2cccnc2)cc1 (stereo unspecified), the Potency was “inactive”. With Cc1ccc(C(=O)Nc2nc3c(s2)CCCC3)o1 the Potency was inconclusive: 0.631 µM [activator, full curve, poor fit]. In the case of COc1ccc(OCCOc2ccccc2[N+](=O)[O-])cc1, the Potency is reported as inconclusive: 12.6 µM [activator, partial curve, poor fit]. In the case of CCOc1ccc(NC(=O)Cn2cc(C(=O)c3ccccc3)c(=O)c3cc4c(cc32)OCO4)cc1, the Potency is reported as “inactive”. With O=C(c1cc(-c2ccc(F)cc2)on1)N1CCCCCC1 the Potency was inconclusive: 1 µM [activator, full curve, poor fit]. With O=C(Nc1nc2ccccc2[nH]1)c1cccc(Br)c1 the Potency was inconclusive: 2.82 µM [activator, full curve, poor fit]. For COc1ccc2c(CC(=O)N3CCc4ccccc43)coc2c1, the Potency was active: 3.55 µM. In the case of O=C(c1ccccc1)c1cc2ccccc2o1, the Potency is reported as active: 10 µM. In the case of C=CCC1(CC=C)CCCN1C(=O)C1CCC(=O)N(Cc2ccc(Cl)cc2)C1 (stereo unspecified), the Potency is reported as inconclusive: 35.5 µM [activator, single point]. In the case of CCOC(=O)C1=C(C)OC(=Cc2ccc(OC)cc2)C1=O, the Potency is reported as “inactive”. In the case of Cc1ccn(-c2ccc(NC(=O)c3cccs3)cc2)n1, the Potency is reported as inconclusive: 1.78 µM [activator, full curve, poor fit]. In the case of N#C/C(=N/Nc1ccc([N+](=O)[O-])cc1)C(=N)N1CCCCC1, the Potency is reported as inconclusive: 1.78 µM [activator, full curve, poor fit]. For CSc1ccccc1NC(=S)NCc1ccc(Cl)cc1, the Potency was inconclusive: 12.6 µM [activator, partial curve, poor fit]. For Cc1ccc(Cc2cnc(NC(=O)C3CCCO3)s2)cc1 (stereo unspecified), the Potency was inconclusive: 1.26 µM [activator, full curve, poor fit]. In the case of CC(C)c1ccc(OCc2nc(-c3ccccn3)no2)c(Br)c1, the Potency is reported as inconclusive: 0.631 µM [activator, full curve, poor fit]. In the case of COc1ccc(-c2cc(C)nc3c(-c4ccccc4)cnn23)cc1, the Potency is reported as inconclusive: 0.631 µM [activator, full curve, poor fit]. With OC(c1ccc(F)cc1)c1nc(-c2cc3ccccc3o2)cs1 (stereo unspecified) the Potency was active: 1.78 µM. With CC(=O)c1ccc(OCc2cc(C(=O)N(C)C3CCOC3)no2)cc1 (stereo unspecified) the Potency was active: 12.6 µM. In the case of COC(=O)c1c(-c2ccc(OC)c(OC)c2)csc1N, the Potency is reported as “inactive”. For CC(C)CCCCCCCCCCCCC(=O)NCC(=O)NC1C(C)OC(Nc2ncnc3nc[nH]c23)C(O)C1O (stereo unspecified), the activation was inconclusive: -88.1% [activator]. For CC(=O)c1ccc(-c2ccc(C(=O)N3CCCc4ccccc43)o2)cc1, the Potency was inconclusive: 22.4 µM [activator, single point]. For Cc1n[nH]c(=S)n(NC(=O)/C=C/C(=O)Nn2c(=S)[nH]nc(C)c2=O)c1=O, the Potency was “inactive”. In the case of COc1ccc(-c2nnc(SCc3ccccc3F)o2)cc1, the Potency is reported as inconclusive: 2 µM [activator, partial curve, poor fit]. In the case of CCOC(=O)c1cnc2cc(-c3ccc(C)cc3)nn2c1C, the Potency is reported as inconclusive: 1.78 µM [activator, full curve, poor fit]. For COc1ccc(N(CC(=O)N2CCN(Cc3ccccc3)CC2)S(C)(=O)=O)cc1OC, the Potency was “inactive”. With O=c1oc2ccccc2cc1-c1ccc(O)cc1 the Potency was inconclusive: 12.6 µM [activator, partial curve, poor fit]. For CCN(CC)c1ccc(/C=N/NC(=O)c2cnccn2)cc1, the Potency was inconclusive: 2.51 µM [activator, full curve, poor fit]. For Cc1cc(C)c2[nH]c(=O)c(CN(Cc3cccs3)C(=S)NCC3CCCO3)cc2c1 (stereo unspecified), the Potency was “inactive”. With C/C(=N\OCc1nc2ccccc2c(=O)n1/N=C/c1cc([N+](=O)[O-])ccc1O)c1ccccc1 the Potency was “inactive”. For O=C(NC1CC1)c1ccc(F)cc1Cl, the Potency was “inactive”. In the case of CCOc1ccc(/C=N/Nc2ccccn2)cc1OC, the Potency is reported as active: 11.2 µM. In the case of CCn1c(SCC(=O)c2cc(C)n(CC3CCCO3)c2C)nc2ccccc21 (stereo unspecified), the Potency is reported as inconclusive: 14.1 µM [activator, partial curve, poor fit]. In the case of O=C(Nc1nc2c(s1)CCCC2)c1cccs1, the Potency is reported as inconclusive: 0.631 µM [activator, full curve, poor fit]. With Clc1ccc(-c2noc(COc3ccccc3)n2)cc1 the Potency was inconclusive: 14.1 µM [activator, partial curve, poor fit]. For CC(C)CCNC(=O)c1csc2c1CCCCC2, the Potency was inconclusive: 35.5 µM [activator, single point]. In the case of Cc1ccc(NC(=O)C(c2ccccc2)N2CCN(C(=O)c3ccco3)CC2)cc1 (stereo unspecified), the Potency is reported as “inactive”. For CC(=O)Nc1ccc(S(=O)(=O)NCc2cn3c(C)csc3n2)cc1, the Potency was “inactive”. With O=c1[nH]c(N2CCOCC2)cc2ccccc12 the Potency was “inactive”. In the case of CCO[C@H]1OC(C(=O)NCc2nc3ccccc3[nH]2)=C[C@@H](C2CCCCC2)[C@@H]1CCCO, the Potency is reported as “inactive”. With Cc1cc(Br)c(NC(=O)CN2CCCC2)c(Br)c1 the Potency was inconclusive: 11.2 µM [activator, partial curve, poor fit]. In the case of CC1=C(C(=O)OCc2ccccc2)C(c2cccs2)N2C(=O)CCSC2=N1 (stereo unspecified), the Potency is reported as “inactive”.
